For at least one compound, name, drawing or mass did not settle the structure.
Tested on: Caenorhabditis elegans
Assay: C. elegans L1 nematicidal dose response in 96-well plates, 5 day visual score (Example 2; same procedure for Example 7, Table 3)
Assay type: in vivo
Settings: for 5 Day Visual Score V6: 0.3 μM; for 5 Day Visual Score V5: 0.9 μM; for 5 Day Visual Score V4: 2.6 μM
Method: Caenorhabditis elegans adults were grown on Nematode Growth Medium (NGM) until they produced eggs, then the adults were removed.
The eggs were allowed to hatch, and the L1 larvae collected. See The Nematode Caenorhabditis elegans (1988) Cold Spring Harbor Laboratory Press. Using a Matrix Programmable Pipette, the L1s were distributed into 96-well tissue culture plates, 20 L1 in 50 μl NGM per well. Antibiotic/Antimyoticwas added to each well, and 1% by weight E. coli strain HB101. The subject anthelmintic compounds were stored at 5 mM in 100% DMSO. 0.7 μl of compounds 1-31 were added to the left-most column of wells to yield a final concentration of 70 μM in 1.4% DMSO, with 1.4% DMSO only as the control. The compounds were then subjected to 5 more 3-fold dilutions from left to right to yield 6 column concentrations of 70 μM, 23.3 μM, 7.8 μM, 2.6 μM, 0.9 μM, and 0.3 μM. Plates were stored in air-tight Rubbermaid plastic boxes at 20° C. The nematodes had cleared all control wells by day 4, and nematode viability was scored by visual examination under a 100× dissecting microsope on day 5. A visual viability scoring system was used as follows:
Column V1 has a compound concentration of 70 μM with sequential 3-fold dilutions reported in columns V2, V3, V4, V5, and V6, respectively, such that the V6 concentration was 0.3 μM.
The nematicidal activity of anthelmintic Compositions 48-168 were determined in accordance with the procedure outlined in Example 2.

[1] = 7.8 μM, C. elegans L1, scored day 5
[2] = 23.3 μM, C. elegans L1, scored day 5
[3] = 70 μM, C. elegans L1, scored day 5
[4] = dose response, dilution V3, day 5
[5] = dose response, dilution V2, day 5
[6] = dose response, dilution V1, day 5

SMILES: CCCCOc1ccc(C(=O)N2CC(OCCCc3ccccc3)CC2C(=O)NCc2ccccc2Br)cc1 (stereo not shown) [AKC 102]
- 5 Day Visual Score V3 [1]: L2/L3
- 5 Day Visual Score V2 [2]: L1/L2
- 5 Day Visual Score V1 [3]: L1/L2

SMILES: CCCCOc1ccc(-c2noc(C3CCC(NC(=O)c4ccc5c(c4)OCO5)CC3)n2)cc1 (stereo not shown) [AKC 103]
- 5 Day Visual Score V1 [3]: L1/L2

SMILES: CN(C)c1ccc(C2=NOC(c3ccc(-c4ccccc4)cc3)C2C(=O)NCCc2ccccc2F)cc1 (stereo not shown) [AKC 104]
- 5 Day Visual Score V6 (C. elegans L1, scored day 5): L1/L2
- 5 Day Visual Score V5 (C. elegans L1, scored day 5): L1/L2
- 5 Day Visual Score V3 [1]: L1/L2
- 5 Day Visual Score V2 [2]: L1/L2
- 5 Day Visual Score V1 [3]: L1/L2

SMILES: O=C(Nc1ccc(OC(F)(F)F)cc1)NC1CCC(c2nc(-c3ccccc3)no2)CC1 (stereo not shown) [AKC 107]
- 5 Day Visual Score V3 [1]: L2/L3

SMILES: O=C(Nc1ccc(Br)cc1)N1CCC(c2nc(-c3ccccc3)no2)CC1 [AKC 108]
- 5 Day Visual Score V6 (C. elegans L1, scored day 5): L2/L3
- 5 Day Visual Score V5 (C. elegans L1, scored day 5): L1/L2

SMILES: Cc1ccc(-c2noc(C3CCC(CNC(=O)Nc4ccc(OC(F)(F)F)cc4)CC3)n2)cc1C (stereo not shown) [AKC 112]
- 5 Day Visual Score V4 (C. elegans L1, scored day 5): L3/L4
- 5 Day Visual Score V3 [1]: L2/L3
- 5 Day Visual Score V2 [2]: L2/L3
- 5 Day Visual Score V1 [3]: L2/L3

SMILES: O=C(Nc1ccc(Br)cc1)NC1CCC(c2nc(-c3ccccc3)no2)CC1 (stereo not shown) [AKC 114]
- 5 Day Visual Score V5 (C. elegans L1, scored day 5): L2/L3

SMILES: O=C(NCCCCCc1nc(-c2ccccc2)no1)Nc1ccc(OC(F)(F)F)cc1 [AKC 115]
- 5 Day Visual Score V6 (C. elegans L1, scored day 5): L2/L3

SMILES: CC(C)(C)C1=NOC(c2ccc(-c3ccccc3)cc2)C1C(=O)NCCc1ccccc1F (stereo not shown) [AKC 120]
- 5 Day Visual Score V4 (C. elegans L1, scored day 5): L1/L2
- 5 Day Visual Score V2 [2]: L2/L3

SMILES: COc1ccc(C2=NOC(c3ccc(-c4ccccc4)cc3)C2C(=O)NCCc2ccccc2F)cc1 (stereo not shown) [AKC 121]
- 5 Day Visual Score V3 [1]: L1/L2

SMILES: CCOc1ccc(C2ON=C(c3ccc(N(C)C)cc3)C2C(=O)NCCc2ccc(F)cc2)cc1 (stereo not shown) [AKC 123]
- 5 Day Visual Score V2 [2]: L1/L2

SMILES: CCOc1cccc(C2ON=C(c3ccccc3OCC)C2C(=O)NCCc2ccc(OC)c(OCC)c2)c1 (stereo not shown) [AKC 124]
- 5 Day Visual Score V3 [1]: L2/L3

SMILES: CCCCOc1ccc(C(=O)N2CC(OCCCc3ccccc3)CC2C(=O)NCc2ccccc2OC)cc1 (stereo not shown) [AKC 126]
- 5 Day Visual Score V3 [1]: L1/L2
- 5 Day Visual Score V2 [2]: L1/L2
- 5 Day Visual Score V1 [3]: L1/L2

SMILES: Cc1ccc(C(CC(=O)c2ccccc2)Nc2ccc(I)cc2F)o1 (stereo not shown) [AKC 129]
- 5 Day Visual Score V6 (C. elegans L1, scored day 5): L1/L2
- 5 Day Visual Score V4 (C. elegans L1, scored day 5): L1/L2
- 5 Day Visual Score V3 [1]: L1/L2

SMILES: Fc1ccc(N2CCN(c3nc(NCc4ccc(C(F)(F)F)cc4)ns3)CC2)cc1 [AKC 135]
- 5 Day Visual Score V3 [1]: L1/L2

SMILES: CCCCCCCCS(=O)(=O)N1CCN(C(=O)C=Cc2cccc(C(F)(F)F)c2)CC1C(=O)NCc1ccc(C(F)(F)F)cc1 (stereo not shown) [AKC 171]
- 5 Day Visual Score V6 (C. elegans L1, scored day 5): L2/L3
- 5 Day Visual Score V4 (C. elegans L1, scored day 5): L2/L3

SMILES: CN(Cc1ccccc1)c1nc(NCc2ccccc2)ns1 [AKC 328]
- Follow-up HTS Run Visual Score: L2/L3
- Initial HTS Run Visual Score: L1/L2
- 5 Day Visual Score V3 [4]: L1/L2

SMILES: O=C(NCCc1ccccc1F)C1C(c2ccc(F)cc2)=NOC1c1ccc(-c2ccccc2)cc1 (stereo not shown) [AKC 2153]
- 5 Day Visual Score V3 [1]: L1/L2

SMILES: COCCN(CCOC)c1nc(N2CCN(c3c(C)cccc3C)CC2)ns1 [compound 221]
- 5 Day Visual Score V2 [5]: L3/L4

SMILES: CCCN(CC1CC1)c1nc(N2CCN(c3ncccn3)CC2)ns1 [compound 222]
- Follow-up HTS Run Visual Score: L2/L3

SMILES: CCN(CC)C(=O)C1CCCN(c2nc(N3CCN(c4ccc(F)cc4)CC3)ns2)C1 (stereo not shown) [compound 223]
- Initial HTS Run Visual Score: L3/1L4

SMILES: CCCCNc1nsc(N2CCN(c3cccc(C(F)(F)F)c3)CC2)n1 [compound 224]
- Initial HTS Run Visual Score: L1/L2

SMILES: Fc1ccc(CCNc2nsc(N3CCN(c4cccc(C(F)(F)F)c4)CC3)n2)cc1 [compound 225]
- Follow-up HTS Run Visual Score: L3/L4
- Initial HTS Run Visual Score: L2/L3
- 5 Day Visual Score V1 [6]: L1/L2
- 5 Day Visual Score V2 [5]: L3/L4

SMILES: FC(F)(F)c1cccc(N2CCN(c3nc(NCC4CCCCC4)ns3)CC2)c1 [compound 226]
- Follow-up HTS Run Visual Score: L3/L4
- Initial HTS Run Visual Score: L2/L3

SMILES: CCCCN(CC)c1nc(N2CCN(c3ccc(F)cc3)CC2)ns1 [compound 236]
- 5 Day Visual Score V2 [5]: L1/L2
- 5 Day Visual Score V3 [4]: L1/L2

SMILES: CCN(Cc1ccccc1)c1nc(N2CCN(c3ccc(F)cc3)CC2)ns1 [compound 237]
- Follow-up HTS Run Visual Score: L1/L2
- Initial HTS Run Visual Score: L1/L2

SMILES: CCOC(=O)CCN(Cc1ccccc1)c1nc(N2CCN(c3ccc(F)cc3)CC2)ns1 [compound 238]
- 5 Day Visual Score V2 [5]: L2/L3

SMILES: Fc1ccc(CCNc2nsc(N3CCN(c4ccc(F)cc4)CC3)n2)cc1 [compound 240]
- Initial HTS Run Visual Score: L1/L2

SMILES: CCN(Cc1ccccc1)c1nc(NCCc2ccc(F)cc2)ns1 [compound 241]
- Initial HTS Run Visual Score: L3/L4
- 5 Day Visual Score V1 [6]: L1/L2

SMILES: CCOC(=O)CCN(Cc1ccccc1)c1nc(NCCc2ccc(F)cc2)ns1 [compound 242]
- Follow-up HTS Run Visual Score: L1/L2
- 5 Day Visual Score V1 [6]: L1/L2

SMILES: Fc1cccc(F)c1CNc1nsc(N2CCN(c3cccc(C(F)(F)F)c3)CC2)n1 [compound 246]
- Follow-up HTS Run Visual Score: L3/L4

SMILES: CC1CCN(c2nc(NCc3ccc(C(F)(F)F)cc3)ns2)CC1 [compound 247]
- Follow-up HTS Run Visual Score: L2/L3
- Initial HTS Run Visual Score: L2/L3
- 5 Day Visual Score V1 [6]: L1/L2

SMILES: CC1CC(C)CN(c2nc(NCc3ccc(C(F)(F)F)cc3)ns2)C1 (stereo not shown) [compound 248]
- 5 Day Visual Score V1 [6]: L1/L2

SMILES: CCN(CC)C(=O)C1CCCN(c2nc(NCc3ccc(C(F)(F)F)cc3)ns2)C1 (stereo not shown) [compound 249]
- Follow-up HTS Run Visual Score: L2/L3
- Initial HTS Run Visual Score: L2/L3
- 5 Day Visual Score V1 [6]: L2/L4

SMILES: FC(F)(F)c1ccc(CNc2nsc(N3CCN(c4cccc(C(F)(F)F)c4)CC3)n2)cc1 [compound 250]
- Follow-up HTS Run Visual Score: L2/L3

SMILES: CC1CCN(c2nc(NCc3ccccc3)ns2)CC1 [compound 261]
- Follow-up HTS Run Visual Score: L2/L3

SMILES: OC1CCN(c2nc(NCc3ccccc3)ns2)CC1 [compound 262]
- Follow-up HTS Run Visual Score: L2/L3

SMILES: OCC1CCCN(c2nc(NCc3ccccc3)ns2)C1 (stereo not shown) [compound 263]
- Follow-up HTS Run Visual Score: L2/L3
- Initial HTS Run Visual Score: L3/L4

SMILES: CCN(CC)C(=O)C1CCCN(c2nc(NCc3ccccc3)ns2)C1 (stereo not shown) [compound 265]
- Follow-up HTS Run Visual Score: L2/L3/L4
- Initial HTS Run Visual Score: L2/L3/L4
- 5 Day Visual Score V1 [6]: L3/L4

SMILES: FC(F)(F)c1cccc(N2CCN(c3nc(NCc4ccccc4)ns3)CC2)c1 [compound 266]
- Follow-up HTS Run Visual Score: L2/L3/L4
- Initial HTS Run Visual Score: L2/L3

SMILES: CCCCCCCCCCCCCCCCCCN(C)c1nc(NCCc2ccc(Oc3ccccc3)cc2)ns1 [compound 270]
- Follow-up HTS Run Visual Score: L1/L2
- Initial HTS Run Visual Score: L1/L2

SMILES: COc1ccc(CNc2nsc(N3CCN(c4ccc(F)cc4)CC3)n2)cc1 [compound 271]
- Follow-up HTS Run Visual Score: L3/L4

SMILES: C=CCN(CC=C)c1nc(NCC(c2ccccc2)c2ccccc2)ns1 [compound 272]
- Follow-up HTS Run Visual Score: L2/L3/L4

SMILES: CCCCCCCCCCNc1nsc(N2CCN(c3ccc(F)cc3)CC2)n1 [compound 273]
- Initial HTS Run Visual Score: L1/L2

SMILES: CCCCCCCCCCNc1nsc(N(CC)C2CCCCC2)n1 [compound 276]
- 5 Day Visual Score V3 [4]: L3/L4

SMILES: Cc1cccc(C)c1N1CCN(c2nc(NCCC(c3ccccc3)c3ccccc3)ns2)CC1 [compound 287]
- Follow-up HTS Run Visual Score: L3/L4
- Initial HTS Run Visual Score: L2/L3

SMILES: C=CCN(CC=C)c1nc(NCCC(c2ccccc2)c2ccccc2)ns1 [compound 289]
- Follow-up HTS Run Visual Score: L1/L2/1L4

SMILES: CCCCN(Cc1ccccc1)c1nc(NCc2ccc(F)cc2F)ns1 [compound 291]
- Initial HTS Run Visual Score: L2/L3

SMILES: CCN(Cc1ccccc1)c1nc(NCc2ccc(F)cc2F)ns1 [compound 292]
- Initial HTS Run Visual Score: L3/L4

SMILES: CCCCN(Cc1ccccc1)c1nc(NCc2c(F)cccc2F)ns1 [compound 298]
- Follow-up HTS Run Visual Score: L2/L3

SMILES: CCN(Cc1ccccc1)c1nc(NCc2c(F)cccc2F)ns1 [compound 299]
- Initial HTS Run Visual Score: L3/L4

SMILES: C=CCN(CC=C)c1nc(NCc2c(F)cccc2F)ns1 [compound 300]
- Initial HTS Run Visual Score: L3/L4

SMILES: FC(F)(F)c1ccc(CNc2nsc(N3CCN(c4ncccn4)CC3)n2)cc1 [compound 303]
- Follow-up HTS Run Visual Score: L2/L3

SMILES: Cc1cccc(C)c1N1CCN(c2nc(NCc3ccc(C(F)(F)F)cc3)ns2)CC1 [compound 304]
- Follow-up HTS Run Visual Score: L2/L3

SMILES: CCN(c1nc(NCc2ccc(C(F)(F)F)cc2)ns1)C1CCCCC1 [compound 305]
- Initial HTS Run Visual Score: L2/L3

SMILES: CCCCCCCCCCCCCCCCCCN(C)c1nc(NCc2ccc(C(F)(F)F)cc2)ns1 [compound 306]
- Initial HTS Run Visual Score: L2/L3

SMILES: CCCCN(CC)c1nc(NCc2ccc(C(F)(F)F)cc2)ns1 [compound 308]
- Follow-up HTS Run Visual Score: L3/L4
- Initial HTS Run Visual Score: L2/L3

SMILES: CCCCN(Cc1ccccc1)c1nc(NCc2ccc(C(F)(F)F)cc2)ns1 [compound 309]
- Follow-up HTS Run Visual Score: L2/L3

SMILES: CCN(Cc1ccccc1)c1nc(NCc2ccc(C(F)(F)F)cc2)ns1 [compound 310]
- Follow-up HTS Run Visual Score: L2/L3
- Initial HTS Run Visual Score: L1/L2

— patent publication US20020002171A1, “Materials and methods for killing nematodes and nematode eggs” (priority 2000, published 2002)
